Experimental data as given in article PMC12820563, “FoxP3 forms a head-to-head dimer in vivo and stabilizes its multimerization on adjacent microsatellites”.
This is one part of the list.

The sequences below were run against T1, MBP-FoxP1dN (Mus musculus, UniProt P58462 326-579) (assay: PD-seq (MBP pull-down with sequencing); 20 mM Tris-HCl pH 7.5, 100 mM NaCl, 1.5 mM MgCl2, 0.4 uM protein, 0.1 uM dsDNA library, 30 min, room temperature, amylose pull-down; high values mean tight binding). Conditions: protein: recombinant; tags: His6-MBP; chain copies: 2; dsDNA, one strand shown.
T1 sequence: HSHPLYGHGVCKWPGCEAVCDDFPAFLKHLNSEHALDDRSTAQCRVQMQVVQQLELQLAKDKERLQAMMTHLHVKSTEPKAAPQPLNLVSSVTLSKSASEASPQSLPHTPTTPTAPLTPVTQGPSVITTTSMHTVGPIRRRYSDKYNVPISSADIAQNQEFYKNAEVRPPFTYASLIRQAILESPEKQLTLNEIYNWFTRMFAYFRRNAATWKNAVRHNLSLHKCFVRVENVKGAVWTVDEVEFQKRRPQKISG
How it was run: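 A fragment of mouse FoxP3 or FoxP1 without its N-terminus, carrying a His6-MBP tag and produced in E. coli, was combined at 0.4 µM with a 0.1 µM degenerate double-stranded DNA library filled in with Klenow. The mixture sat for 30 min at room temperature in Tris pH 7.5 buffer containing NaCl and MgCl2. Protein–DNA complexes were captured on amylose resin, washed three times, and the DNA was freed with proteinase K, barcoded by PCR and sequenced on Illumina. Binding is expressed as reads-per-million enrichment of pull-down over input, with replicates pooled.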

Row | Sequence | binding signal
1 | GATGATTGTTCTCCCAGCTGATGAATTTGTCTAGTCGAGTAAACAAATTTTCCTAATCTTTCTGTTCAAGCGCCATCTAC | 0.997 RPM ratio (pull-down/input)
2 | GATGATTGTTCTCCCAGCTGATGAATTTCCGTGGTCGAGTAAACAAATTTTCCTAATCTTTCTGTTCAAGCGCCATCTAC | 0.762 RPM ratio (pull-down/input)
3 | GATGATTGTTCTCCCAGCTGATGAATTTGATTCATCGAGTAAACAAATTTTCCTAATCTTTCTGTTCAAGCGCCATCTAC | 0.937 RPM ratio (pull-down/input)
4 | GATGATTGTTCTCCCAGCTGATGAATTGGCGTTCTCGAGTAAACAAATTTTCCTAATCTTTCTGTTCAAGCGCCATCTAC | 0.872 RPM ratio (pull-down/input)
5 | GATGATTGTTCTCCCAGCTGATGAATTGATGTGTTCGAGTAAACAAATTTTCCTAATCTTTCTGTTCAAGCGCCATCTAC | 1.5 RPM ratio (pull-down/input)
6 | GATGATTGTTCTCCCAGCTGATGAATTTGACGGCTCGAGTAAACAAATTTTCCTAATCTTTCTGTTCAAGCGCCATCTAC | 0.753 RPM ratio (pull-down/input)
7 | GATGATTGTTCTCCCAGCTGATGAATTGCATAGCTCGAGTAAACAAATTTTCCTAATCTTTCTGTTCAAGCGCCATCTAC | 1.02 RPM ratio (pull-down/input)
8 | GATGATTGTTCTCCCAGCTGATGAATTCGCCAATTCGAGTAAACAAATTTTCCTAATCTTTCTGTTCAAGCGCCATCTAC | 0.869 RPM ratio (pull-down/input)
9 | GATGATTGTTCTCCCAGCTGATGAATTACATCTGTCGAGTAAACAAATTTTCCTAATCTTTCTGTTCAAGCGCCATCTAC | 1.04 RPM ratio (pull-down/input)
10 | GATGATTGTTCTCCCAGCTGATGAATTGTTTGCCTCGAGTAAACAAATTTTCCTAATCTTTCTGTTCAAGCGCCATCTAC | 1.96 RPM ratio (pull-down/input)
11 | GATGATTGTTCTCCCAGCTGATGAATTACGCGTCTCGAGTAAACAAATTTTCCTAATCTTTCTGTTCAAGCGCCATCTAC | 1 RPM ratio (pull-down/input)
12 | GATGATTGTTCTCCCAGCTGATGAATTTCCATGGTCGAGTAAACAAATTTTCCTAATCTTTCTGTTCAAGCGCCATCTAC | 0.791 RPM ratio (pull-down/input)
13 | GATGATTGTTCTCCCAGCTGATGAATTTCGCAGCTCGAGTAAACAAATTTTCCTAATCTTTCTGTTCAAGCGCCATCTAC | 0.828 RPM ratio (pull-down/input)
14 | GATGATTGTTCTCCCAGCTGATGAATTTCTCTGATCGAGTAAACAAATTTTCCTAATCTTTCTGTTCAAGCGCCATCTAC | 0.854 RPM ratio (pull-down/input)
15 | GATGATTGTTCTCCCAGCTGATGAATTCGCCGAATCGAGTAAACAAATTTTCCTAATCTTTCTGTTCAAGCGCCATCTAC | 0.874 RPM ratio (pull-down/input)
16 | GATGATTGTTCTCCCAGCTGATGAATTGGGTTTCTCGAGTAAACAAATTTTCCTAATCTTTCTGTTCAAGCGCCATCTAC | 0.842 RPM ratio (pull-down/input)
17 | GATGATTGTTCTCCCAGCTGATGAATTTAGGGGATCGAGTAAACAAATTTTCCTAATCTTTCTGTTCAAGCGCCATCTAC | 0.957 RPM ratio (pull-down/input)
18 | GATGATTGTTCTCCCAGCTGATGAATTTCGCTGATCGAGTAAACAAATTTTCCTAATCTTTCTGTTCAAGCGCCATCTAC | 0.874 RPM ratio (pull-down/input)
